# Laboratory results: PubChem BioAssay AID1345082 (National Center for Advancing Translational Sciences (NCATS), 2018)
# Out of some 94,000 compounds screened, about 4,000 (4.3%) were called active. This list was built around the results that the source calls inconclusive (neither active nor inactive); the mix of calls is not that of the screen. The call rests on the fitted dose curve; in most records, active means well fitted inhibition curve with a large enough effect; inconclusive means small, poorly fitted or top-dose-only effect; inactive means no such curve, though single readings can be large or run the other way. Potencies beside an inconclusive call are fits to weak or partial responses and may not hold up.
# Experiment: Cytotoxic Profiling in NIH 3T3 Cell Line of Diverse Libraries Using Quantitative High-Throughput Screening; further: nearly all actives have a fitted effect of over 55% in size
# Conditions: NIH 3T3 viability, CellTiter-Glo ATP luminescence, 48-72 h; series mostly up to 96.7 µM
# Method in brief: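 Mouse fibroblast NIH 3T3 cells, 400 per well, received compound via pintool and were incubated for 48 or 72 hr prior to CellTiter-Glo ATP luminescence measurement.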
# Potency means the concentration at half of the fitted maximal effect; tags describe the fitted curve by direction and shape.
row,SMILES,Potency
1,Cc1ccc([S+](=O)([O-])NC2CCN(C(=O)c3ccc(-c4ncccc4C#N)cc3)CC2)cc1,"inconclusive: 44.7 µM [inhibitor, partial curve, poor fit]"
2,COCc1ccc2c(c1)c(OC(C)(C)C(=O)NC1CCN(C)CC1)nn2CCC(C)C,active: 89.1 µM
3,CCOc1ccccc1CNC(=O)CN1CC2CC(C1)[C@H]1CCCC(=O)N1C2 (stereo partly specified),"inconclusive: 50.1 µM [inhibitor, partial curve, poor fit]"
4,CCCn1ccc2sc(C)c(C(=O)N3CCN(c4ccccn4)CC3)c2c1=O,"inconclusive: 70.8 µM [inhibitor, single point]"
5,Cc1cc2ncc(C(=O)NC3CCCCCC3)cn2n1,inactive
6,COc1ccc(CN2CCN(C3CCN(c4ccccc4)CC3)CC2CCO)cc1C (stereo unspecified),"inconclusive: 89.1 µM [inhibitor, single point]"
7,Cc1onc(-c2cnn(C)c2NCc2ccc(C#N)cc2)c1C(=O)N1CCCC1,"inconclusive: 56.2 µM [inhibitor, partial curve, poor fit]"
8,CCCNC(=O)N1CCCCCCNC(=O)[C@@H]2CCCC[C@@H]21,inactive
9,Cc1ccc(C)c(Cn2c(-c3cccc(Cl)c3)nc(C)c(CCO)c2=O)c1,"inconclusive: 70.8 µM [inhibitor, partial curve, poor fit]"
10,Cn1c([C@H]2CCN(Cc3ccc(F)c(F)c3)C2)nc2ccccc21,"inconclusive: 100 µM [inhibitor, partial curve, poor fit]"
11,O=S(=O)(c1ccccc1F)N1CCC(CCc2nc(C3CCOCC3)no2)CC1,"inconclusive: 44.7 µM [inhibitor, partial curve, poor fit]"
12,O=C(Nc1ccc(Cl)cc1)N1CCCC(C(=O)N2CCCC(c3nc4ncccc4[nH]3)C2)C1 (stereo unspecified),active: 22.4 µM
13,COC(=O)CNC(=O)c1nc(-c2ccccc2)c2ccccn12,"inconclusive: 89.1 µM [inhibitor, partial curve, poor fit]"
14,O=C(c1ccc2ccccc2n1)N1CCC(Cc2nc(-c3ccccc3)n[nH]2)CC1,"inconclusive: 44.7 µM [inhibitor, partial curve, poor fit]"
15,O=C1CCN(C(=O)c2cccc3[nH]ccc23)CCCCCCN1,inactive
16,CN1CCC(N2C[C@H](O)C[C@H]2c2nc(CS(=O)(=O)c3ccc(F)cc3)no2)CC1,inactive
17,COc1ccc(-c2cc(N3CCCN(C(=O)c4cccc(Br)c4)CC3)n[nH]2)cc1,"inconclusive: 50.1 µM [inhibitor, partial curve, poor fit]"
18,CC1(C(=O)NCc2ccncc2)CCc2cnc(NCc3ccccc3)nc21 (stereo unspecified),active: 44.7 µM
19,CN1CC(C(=O)NCc2cccc(Cl)c2)NC1=O (stereo unspecified),inactive
20,CCOC(=O)c1ccc(NC(=O)Cn2nc3c(cc2=O)CN(C(C)=O)CC3)cc1,"inconclusive: 70.8 µM [inhibitor, single point]"
21,COC[C@H]1CCCN1[C@@H]1[C@H](O)[C@H](CO)O[C@@H]1CN(Cc1cccc(Cl)c1)Cc1cccc(Cl)c1,"inconclusive: 44.7 µM [inhibitor, partial curve, poor fit]"

row,SMILES,Potency
1,O=C(CNC(=O)c1ccc(-c2cnc3ccccc3c2)cc1)NCC(F)(F)F,inactive
2,CCn1cc2c3c(cccc31)CN(C(=O)c1ccc(OC)c(F)c1)CC2,"inconclusive: 44.7 µM [inhibitor, partial curve, poor fit]"
3,CCOC(=O)[C@H]1[C@@H](O)C(=O)N(C(C)C)C12CCN(C(=O)C1CCCC1)CC2,"inconclusive: 44.7 µM [inhibitor, partial curve, poor fit]"
4,O=c1cc(N2CCOCC2)oc2c(-c3ccccc3Oc3ccccc3)nccc12,"inconclusive: 20 µM [inhibitor, full curve, poor fit]"
5,O=C1COc2ccc(OCc3cccnc3)nc2CN1CCOc1ccccc1,"inconclusive: 35.5 µM [inhibitor, partial curve]"
6,COC(=O)c1cn([C@H]2CO[C@H]3[C@@H]2OC[C@H]3OC(=O)Nc2ccc(C(C)(C)C)cc2)nn1,inactive
7,COc1ccc(-c2cn3cc(C(=O)NCc4ccc(F)cc4)nc3s2)cc1,"inconclusive: 70.8 µM [inhibitor, single point]"
8,CN(C(=O)c1ccc(Cl)nc1)C1CCCc2ccccc21 (stereo unspecified),"inconclusive: 44.7 µM [inhibitor, partial curve]"
9,CC(C)N1CC(C(=O)NCc2cccs2)NC1=O (stereo unspecified),inactive
10,CNC(=O)NC[C@H]1CCN(Cc2ccc(OC)c(OC)c2Cl)C[C@H]1N(C)C,inactive
11,Cc1ccsc1CN1CCc2c(sc3ncnc(N(C)C)c23)C1,"inconclusive: 50.1 µM [inhibitor, partial curve, poor fit]"
12,Cc1cc(C)n(-c2cccc(CN(C)C(=O)Cn3nnnc3CN3CCOCC3)c2)n1,inactive
13,O=C(NC1CCCN(c2cc(-c3ccc(F)cc3)[nH]n2)C1)c1ccsc1 (stereo unspecified),"inconclusive: 50.1 µM [inhibitor, partial curve, poor fit]"
14,O[C@H]1CC[C@@H](Cc2cc(-c3ccc(F)cc3)on2)O[C@@H]1CNCc1ccccc1Cl,"inconclusive: 79.4 µM [inhibitor, partial curve, poor fit]"
15,O=C(c1ccc(Cl)nc1)N1CCC(C(=O)N2CCC(N3CCOCC3=O)CC2)CC1,inactive
16,O=C(OCc1ccccc1)N1CCOCC12CCN(Cc1cccnc1)CC2,"inconclusive: 89.1 µM [inhibitor, partial curve, poor fit]"
17,O=C(NC1CCCN(c2ccnc3ccnn23)C1)c1ccccc1 (stereo unspecified),"inconclusive: 63.1 µM [inhibitor, partial curve, poor fit]"
18,COc1ccnc(-c2nnc3ccc(NC4CCOCC4)nn23)c1,active: 79.4 µM
19,O=C1NCCOCCN(C(=O)Nc2ccc3c(c2)OCCO3)[C@@H]2CCCC[C@H]12,inactive
20,COc1ccc(S(=O)(=O)N2C[C@@H]3C[C@H](C2)c2ccc(NS(=O)(=O)c4cccc(F)c4)c(=O)n2C3)cc1,"inconclusive: 89.1 µM [inhibitor, partial curve, poor fit]"
